Results as given in patent publication US20180296663A1 (priority 2015, published 2018).

Key:
HA protein [1] = tested on: HA protein
HA protein [2] = tested on: HA protein; remark: listed apart in the source

Molecule: CC1=C(/C=C/C(C)=C/C=C/C(C)=C/C(=O)O)C(C)(C)CCC1 [ATRA, all-trans retinoic acid]
- HA-specific IgA titers in intestinal lavage (HA protein [1]; in vivo, sc): significant increase
- HA-specific IgA titers in sera (HA protein [1]; in vivo, sc): significant increase

Molecule: Nc1nc2c(ncn2[C@@H]2O[C@@H]3COP(=O)(O)O[C@H]4[C@@H](O)[C@H](n5cnc6c(=O)[nH]c(N)nc65)O[C@@H]4COP(=O)(O)O[C@H]3[C@H]2O)c(=O)[nH]1 [c-di-GMP, cyclic diguanylate monophosphate]
- neutralizing antibody titers against the HA protein (HA protein [2]; in vivo): higher neutralizing antibody titers

Molecule: HMGB1: high mobility group protein (HMGB) compound, which may act as an endogenous immunomodulator
- neutralizing antibody titers against the HA protein (HI antibody titer) (HA protein [2]; Balb/c mice, i.m. days 0 and 21, 40 μg HA-mRNA (R2564) plus adjuvant, day 35 (day 14 after booster), compared to HA-mRNA alone (Example 2, FIG. 5)): higher neutralizing antibody titers
- HA-specific IgG1 titers in sera (HA protein [1]; BALB/c mice, i.m. days 0 and 21, adjuvant combined with HA-mRNA (R2564); day 14 after booster; […], FIG. 3)): higher antibody titers
- HA-specific IgG2a titers in sera (HA protein [1]; BALB/c mice, i.m. days 0 and 21, adjuvant combined with HA-mRNA (R2564); day 14 after booster; […], FIG. 4)): higher antibody titers
